# Experimental data from PubChem BioAssay AID1346428 (National Center for Advancing Translational Sciences (NCATS), 2018).
# Among all 48,000 compounds or so, about 1,200 (2.5%) were called active. Roughly 2% stayed inconclusive and do not appear here.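 The calls were made as follows: active = activation of at least 60% and not above a set upper limit (about 1 call in 100 departs from these limits); inconclusive = activation of 40% to 60%, or above that upper limit; inactive = activation under 40%.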 The list shows a part of the results.
# Molecular target: Probable G-protein coupled receptor 32 (Homo sapiens) (UniProt O75388)
# Assay: qHTS for Agonists of Human Resolvin D1 Receptor DRV1; also: 0% is about no effect
# Conditions: CHO-K1 GPR32 beta-arrestin PathHunter luminescence, 90 min; at 76.9 µM; hits give high values; zero percent set by DMSO-only wells
# Summary of the method: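 PathHunter beta-arrestin recruitment in CHO-K1 cells stably expressing ProLink-tagged GPR32. Cells were exposed to compound for 90 min at 37 C, then chemiluminescence was read after 1 h detection at ambient temperature; DMSO served as basal control.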
# Sequence of UniProt O75388 (O75388 whole entry, looked up): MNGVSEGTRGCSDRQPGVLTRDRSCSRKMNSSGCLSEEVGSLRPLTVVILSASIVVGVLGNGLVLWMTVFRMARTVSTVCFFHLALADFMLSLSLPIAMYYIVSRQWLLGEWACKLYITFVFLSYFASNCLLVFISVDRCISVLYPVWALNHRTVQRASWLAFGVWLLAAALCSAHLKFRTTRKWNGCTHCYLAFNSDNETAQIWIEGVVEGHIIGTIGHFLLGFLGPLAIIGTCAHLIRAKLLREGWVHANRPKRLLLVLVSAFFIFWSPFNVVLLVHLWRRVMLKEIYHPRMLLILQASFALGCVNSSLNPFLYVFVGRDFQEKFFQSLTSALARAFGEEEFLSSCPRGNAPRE
row,Compound,activation
1,CCOc1nc(NC(=O)NS(=O)(=O)Oc2cccc(F)c2)nc(-c2ccccc2)n1,inactive: 33.1%
2,CC(=O)Nc1nonc1-c1nnc(SCc2ccccc2C)n1C,inactive: -11.4%
3,O=C(CSc1oc(-c2ccccc2)nc1S(=O)(=O)c1ccc(Br)cc1)NC1CCCCC1,inactive: -14.8%
4,Cc1cccc(CSc2nc3cccnc3n2Cc2ccc(C(=O)NCc3cccs3)cc2)c1,inactive: -21.2%
5,O=C(c1ccc(Cl)cc1)N1CCCCC1CCN1CCOCC1 (stereo unspecified),inactive: -11%
6,Cc1ccc(C)c(N2CCN(C(=O)c3cc4c(=O)n(Cc5cccnc5)ccc4nc3C)CC2)c1,inactive: -9.93%
7,COc1ccc(NC(=O)CSc2nc3ccccc3n2CC(=O)N2CCCC(C)C2)cc1 (stereo unspecified),inactive: -7.54%
8,Cc1ccc(NC(=O)c2cc3c(Cl)nc4ccc(C)cc4c3s2)c(Cl)c1,inactive: -3.16%
9,CCn1c(=O)c2cc(C(=O)Nc3cc(C)c(Cl)cc3OC)sc2c2ccccc21,inactive: -7.64%
10,Cc1cccc(C(=O)Nc2c(-c3ccc(F)cc3)nc3ccccn23)c1,inactive: 18.7%
11,Cc1cc(C)n(-c2nc3cc(Cl)c(Cl)cc3nc2Nc2ccc(F)cc2C)n1,inactive: -0.045%
12,COc1ccc(CNC(=O)c2cc(-c3cccs3)nc3ccccc23)c(OC)c1,inactive: -0.909%
13,CC(=O)N(Cc1cccnc1)c1nc2c(C)cc(C)cc2s1,inactive: -18.5%
14,CCOc1ccccc1N1CC(c2nc3ccccc3n2CCOc2ccc(OC)cc2)CC1=O (stereo unspecified),active: 79.6%
15,CCOC(=O)c1sc(NC(=O)c2nc3ncccn3n2)c(C(=O)OC(C)C)c1C,inactive: -2.57%
16,Cc1nnc(N2CCCC(C(=O)Nc3ccccc3C(F)(F)F)C2)c2nn(-c3ccccc3)c(C)c12 (stereo unspecified),inactive: -4.94%
17,Cc1ccc(NS(=O)(=O)c2ccc3[nH]c4c(c3c2)CCCC4)c(C)c1,inactive: 35.9%
18,CC1CCc2c(sc3nnn(Cc4ccccc4)c(=O)c23)C1 (stereo unspecified),inactive: -4.07%
19,Cc1cc(C)cc(NC(=O)C2CCCN2S(=O)(=O)c2ccc3c(c2)C(C)(C)C(=O)N3C)c1 (stereo unspecified),inactive: -28.5%
20,CCOC(=O)c1ccc(NC(=O)c2ccc3c(c2)c(C)c(C)n3Cc2ccc(F)cc2)cc1,inactive: -7.82%
21,COc1ccccc1NC(=O)c1oc2ccccc2c1NC(=O)c1c(F)cccc1F,inactive: -1.59%
22,CCOC(=O)C1(C)C=C(Nc2ccc(OC)cc2)C(=O)N1c1ccccc1 (stereo unspecified),inactive: -9.74%
23,COc1ccc(Cn2cc(C(=O)c3ccc(Cl)cc3)c(=O)c3cc4c(cc32)OCO4)cc1,inactive: 9.58%
24,Cc1cc(C)c(Cn2c3ccccc3c3cnn(CC(=O)NC4CCCCCC4)c(=O)c32)c(C)c1,inactive: 3.27%
25,CC(C)(Sc1cc(C(C)(C)C)c(O)c(C(C)(C)C)c1)Sc1cc(C(C)(C)C)c(O)c(C(C)(C)C)c1,inactive: -2.32%
26,O=C(Nc1cccc(Cl)c1Cl)c1cc(S(=O)(=O)N2CCC3(CC2)OCCO3)ccc1F,inactive: -12.9%

row,Compound,activation
1,COc1cc(OC)cc(C(=O)Nc2ccc(S(=O)(=O)N3CCCCC3c3cccnc3)cc2)c1 (stereo unspecified),inactive: -18.4%
2,Cc1ccc(-n2nc3c(N4CCC(C(=O)N5CCC(C)CC5)CC4)nnc(C)c3c2C)cc1,inactive: 2.07%
3,COC(=O)c1cc2oc3ccccc3c2n1Cc1nc(-c2cccc(Cl)c2)oc1C,inactive: 2.61%
4,CCc1ccc(Nc2nn3c(=O)c4cc5c(cc4nc3s2)OCO5)cc1,inactive: 2.21%
5,CC1=C(C(=O)Nc2cccnc2)C(c2cccc(O)c2)n2nc(SCc3ccccc3)nc2N1 (stereo unspecified),inactive: -11.3%
6,CCCn1c(=O)n(-c2cc(Cl)c(OC)cc2OC)c(=O)c2c3c(sc21)CN(C(C)=O)CC3,inactive: -45%
7,Cc1cc(C)c(Cn2c(CCNC(=O)c3ccco3)nc3ccccc32)c(C)c1,active: 68.2%
8,CCn1cc(CCC(=O)NCc2ccc(F)cc2)c2ccccc21,inactive: -18.2%
9,Cc1ccc([C@H]2Nc3ccc(S(=O)(=O)Nc4cccc(Cl)c4C)cc3[C@H]3C=CC[C@H]32)cc1,inactive: -25.9%
10,Cc1ccc(Nc2nnc(-c3ccc(C)c(S(=O)(=O)N4CCN(C)CC4)c3)c3ccccc23)c(C)c1,inactive: -4.31%
11,CCCN(C(=O)c1nn(-c2ccc(OC)c(Cl)c2)c(=O)c2c1c1ccccc1n2C)c1ccccc1F,inactive: -6.61%
12,COc1ccc(NC(=O)c2ccc3c(=O)n4nc(Nc5cc(C)ccc5C)sc4nc3c2)cc1,inactive: -3.19%
13,COc1ccc(OC)c(NC(=O)Cn2cnc3sc(C)c(S(=O)(=O)N4CCN(c5ccccc5OC)CC4)c3c2=O)c1,inactive: 1.42%
14,CCOc1ccccc1CNC(=O)C1CCN(C2=NS(=O)(=O)C(c3ccc(C)c(C)c3)=C2C)CC1,inactive: -5.04%
15,COc1ccc(C(=O)N2CCC(c3nc4ccccc4o3)CC2)cc1,inactive: 2.43%
16,CCOc1ccc(C(=O)NCCc2csc(-c3ccc(C(F)(F)F)cc3)n2)cc1OCC,inactive: -14.2%
17,COc1ccc(S(=O)(=O)c2c(Nc3ccc(F)cc3)sc(C(=O)c3ccc(C)cc3C)c2N)cc1,inactive: -28.5%
18,COc1ccc(C(=O)Nc2cc(C(C)C)c(O)c(S(=O)(=O)c3ccc(OC)cc3)c2C)cc1,inactive: -9.92%
19,c1ccc(Cc2nnc(SCc3nc(-c4cccs4)no3)n2-c2ccccc2)cc1,inactive: 3.74%
20,Cc1ccccc1N1CCN(S(=O)(=O)c2nnc(NC(=O)c3ccccc3)s2)CC1,inactive: 43.5%
21,CC(C)c1ccc2oc(-c3cc(NC(=O)c4cccs4)ccc3Cl)nc2c1,inactive: -3.01%
22,CS(=O)(=O)CCNCc1ccc(-c2ccc3ncnc(Nc4ccc(OCc5cccc(F)c5)c(Cl)c4)c3c2)o1,inactive: 9.12%
23,COc1cccc(NC(=O)c2sc3nc(C)c(C(=O)Nc4ccc(C)cc4C)c(-c4sccc4C)c3c2N)c1,inactive: -21.7%
24,O=c1c2oc3ccccc3c2n(Cc2cccc(F)c2)c(=O)n1Cc1ccco1,inactive: -8.76%
25,Cc1onc(-c2c(Cl)cccc2Cl)c1C(=O)Cl,inactive: 8.71%
